Measurements as given in PMC4336329 (PLoS ONE, 2015).
In all, about 310,000 compounds went through this assay and about 2,200 (0.71%) showed an effect of 50% or more. Effects have a minus sign here. The list shows a part of the results.

These molecules were tested against human ether-à-go-go-related gene (hERG) potassium channel (human, UniProt Q12809) (assay: primary screen, population patch clamp on CHO cells stably expressing hERG).
Sequence of human ether-à-go-go-related gene (hERG) potassium channel (Q12809 whole entry, looked up): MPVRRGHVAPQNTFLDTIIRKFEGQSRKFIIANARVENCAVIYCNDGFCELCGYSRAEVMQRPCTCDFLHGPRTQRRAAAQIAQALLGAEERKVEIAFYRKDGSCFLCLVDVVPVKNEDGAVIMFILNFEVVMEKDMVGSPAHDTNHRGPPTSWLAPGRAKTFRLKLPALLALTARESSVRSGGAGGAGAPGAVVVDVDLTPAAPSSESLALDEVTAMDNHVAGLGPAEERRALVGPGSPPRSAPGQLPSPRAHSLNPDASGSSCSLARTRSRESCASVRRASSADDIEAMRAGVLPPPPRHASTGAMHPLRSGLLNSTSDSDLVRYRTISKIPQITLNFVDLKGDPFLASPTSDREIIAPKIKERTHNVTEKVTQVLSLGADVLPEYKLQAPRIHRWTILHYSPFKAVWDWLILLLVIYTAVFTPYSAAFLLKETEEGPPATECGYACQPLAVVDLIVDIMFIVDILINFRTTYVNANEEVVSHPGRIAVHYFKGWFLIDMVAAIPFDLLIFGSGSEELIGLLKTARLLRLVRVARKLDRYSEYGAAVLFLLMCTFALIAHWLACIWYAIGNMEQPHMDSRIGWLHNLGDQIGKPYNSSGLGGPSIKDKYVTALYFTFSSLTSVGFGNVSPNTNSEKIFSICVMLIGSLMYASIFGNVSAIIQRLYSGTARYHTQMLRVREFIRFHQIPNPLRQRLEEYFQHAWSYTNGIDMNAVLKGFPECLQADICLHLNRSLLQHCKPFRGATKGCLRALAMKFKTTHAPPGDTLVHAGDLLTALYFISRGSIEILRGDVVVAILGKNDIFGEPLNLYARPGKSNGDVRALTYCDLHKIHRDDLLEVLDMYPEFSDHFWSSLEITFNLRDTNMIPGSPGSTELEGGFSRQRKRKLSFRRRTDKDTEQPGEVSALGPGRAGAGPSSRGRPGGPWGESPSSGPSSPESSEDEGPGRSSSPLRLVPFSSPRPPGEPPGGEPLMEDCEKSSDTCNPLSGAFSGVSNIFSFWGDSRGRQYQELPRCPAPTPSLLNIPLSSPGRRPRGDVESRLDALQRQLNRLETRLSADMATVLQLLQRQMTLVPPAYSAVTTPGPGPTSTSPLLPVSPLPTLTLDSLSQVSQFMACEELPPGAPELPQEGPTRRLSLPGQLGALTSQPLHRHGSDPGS

Compound	hERG current change (%, negative = inhibition) at 1uM
Cc1ccc(NC(=O)C2CCN(S(=O)(=O)c3cccs3)CC2)c(O)c1	2.97%
CN(C)c1oc(-c2ccccc2Cl)nc1S(=O)(=O)c1ccccc1	5.01%
COc1cccc(C(O)c2nc3ccccc3n2C)c1 (centres unmarked)	11.8%
NC(=O)c1cc([N+](=O)[O-])cc2c1C=Cc1ccccc1O2	4.96%
NNC(=O)C(Cc1ccccc1)NC(=O)OCc1ccccc1 (centres unmarked)	31.9%
CCOC(=O)C1CCN(S(=O)(=O)c2ccc(OC)c(C(=O)N3CCCCCC3)c2)CC1	10%
COc1cc(CN2CCCC(C(=O)Nc3ccccc3Oc3cccnc3)C2)ccc1F (centres unmarked)	1.16%
C=CCC1c2cccc(C(=O)O)c2C(=O)N1c1ccc(F)cc1 (centres unmarked)	3.84%
Cc1oc2ccc(OC(=O)N3CCOCC3)cc2c1C(=O)OC(C)C	13.6%
O=S(=O)(NNc1ccc(Cl)nn1)c1ccc(F)cc1	3.03%
CCC1=Nc2cc(C(=O)NCCN3CCCC3)ccc2Sc2ccccc21	9.43%
Nc1ccc(C2(c3ccc(N)cc3)c3ccccc3-c3ccccc32)cc1	5.49%
C=CCn1c(SCC(=O)Nc2cccc(S(=O)(=O)N(C)c3ccccc3)c2)nnc1C1CC1	-3.67%
Cc1ccc(NC2=NC(c3ccccc3)n3c(nc(C)cc3=O)N2)cc1 (centres unmarked)	8.23%
COc1ccc(Cl)cc1NC(=O)CN(C)C(=O)CCc1nc2ccccc2c(=O)[nH]1	1.33%
CCOC(=O)c1c(-c2ccc(C)s2)csc1NC(=O)c1cccs1	5.23%
O=C(Nc1ccc2ncccc2c1)c1cc(Cl)ccc1Cl	12.6%
Fc1ccc2c(c1)C1C=CCC1C(c1cc3c(cc1Br)OCO3)N2 (centres unmarked)	3.45%
CSc1ccccc1NC(=O)c1cccc(S(=O)(=O)N2CCN(C)CC2)c1	18.1%
O=C(NCc1nc2ccccc2[nH]1)c1ccc(S(=O)(=O)N2CCCC2)cc1	8.19%
O=C(COC(=O)c1cccc(S(=O)(=O)N2CCCC2)c1)NCc1ccccc1	15.3%
CCOc1cc(C)c(S(=O)(=O)NC2CCCCC2)cc1C	9.26%

Compound	hERG current change (%, negative = inhibition) at 1uM
O=C(O)c1ccc(N/N=C/c2ccc(-c3cc(Cl)ccc3Cl)o2)cc1	8.83%
CC(C)c1c(O)nc(SCCOc2ccc(Cl)cc2)[nH]c1=O	8.93%
O=C(O)CCSc1nc2ccccc2n1-c1ccccc1	13.9%
Cc1ccc(-c2cc(-c3ccc(C)cc3)[n+](-c3ccccc3)c(-c3ccc(C)cc3)c2)cc1.[O-][Cl+3]([O-])([O-])[O-]	-77.3%
Cc1cc(NC(=O)CSc2nc(-c3ccco3)cc(C(F)(F)F)n2)n(-c2ccccc2)n1	18.3%
CCOc1ccccc1CNC(=O)c1ccc(Sc2ccc(Cl)cc2)c(NC(C)=O)c1	0.132%
CC(=O)NS(=O)(=O)c1cccnc1Nc1cccc(Cl)c1	8.83%
COC(=O)[C@H]1C[C@@H]1[C@H](NC(=O)c1ccccc1)c1ccccc1	5.41%
CCOC(=O)Cc1cc(-c2ccc(F)cc2)nc2ccc3ccccc3c12	10.1%
Cc1ccc(CNC(=O)CCS(=O)(=O)c2ccc(C)cc2)cc1	-6.2%
O=C(COC(=O)c1cccs1)NCC1CCCCC1	17.4%
Cc1cc(C)nc(SCCC(=O)Nc2ccccc2)n1	0.0335%
CCOC(=O)C1(CC2CCCCO2)CCN(C(=O)Nc2ccccc2CC)CC1 (centres unmarked)	-7.98%
O=C(Cc1cccs1)Nc1ccc(S(=O)(=O)N2CCCC2)cc1	16%
C=CC[C@]12C=C(OC)C(=O)C(OC)=C1O[C@@H](c1ccc3c(c1)OCO3)[C@H]2C	14.8%
O=C(CCC(=O)Nc1ccccc1Cl)N/N=C/c1ccccc1	7.19%
CC1CC(=O)N(c2ccc(NCCc3ccccc3)c([N+](=O)[O-])c2)C1=O (centres unmarked)	-0.98%
COc1ccc(C2C(C(C)=O)=C(C)N=c3s/c(=C\c4cc(C)n(C)c4C)c(=O)n32)c(OC)c1 (centres unmarked)	-13.5%
CC(=O)N1CN2CN(C(C)=O)CC(C(=O)c3ccccc3)(C2)C1	11.5%
CC1CN(C2=CC(=O)CCC2)CC(C)O1 (centres unmarked)	15.3%
Cc1ccc(C(=O)NCC(=O)OCC(=O)c2ccc3c(c2)OCCO3)cc1C	15.7%
COc1cc(-c2cc(C(=O)Nc3c(Cl)cc(Cl)cc3Cl)c3ccccc3n2)cc(OC)c1OC	0.191%
